The campaign covered roughly 350,000 compounds. About 9,900 (2.8%) were called active. Inconclusive means that the source gave no clear call. Such entries were picked first, then a sample of the others. Calls follow the shape of the dose curve; as a rule, active = well fitted activation curve with a large enough effect; inconclusive = small, poorly fitted or top-dose-only effect; inactive = no such curve, though single readings can be large or run the other way. Potencies of inconclusive entries are left out as doubtful fits.
Assay: A quantitative high throughput screen for small molecules that induce DNA re-replication in MCF 10a normal breast cells. Also: nearly all actives have a fitted effect of over 50% in size. As to activity, positive = re-replication: % of control where 0% means no effect.
Settings: MCF 10A DNA re-replication, Hoechst nuclear intensity, 48 h; activity, positive = re-replication: at 46.1 µM (top of the series)
Potency is read from the fitted curve at half-maximal effect; tags tell the direction and shape of the fitted curve.

| SMILES | Potency | activity, positive = re-replication |
| --- | --- | --- |
| COC(=O)C1=C(C)NC(=S)N(C(C)=O)C1c1ccc(OC)c(OC)c1 (stereo unspecified) | inconclusive [activator, single point] | – |
| O=C(Nc1ccccc1)Nc1sccc1-c1nc2ccccc2s1 | inconclusive [activator, partial curve, poor fit] | – |
| CCCSc1nc2c(cnn2-c2ccccc2)c(=O)n1N | inconclusive [activator, partial curve, poor fit] | – |
| Cc1[nH]n(-c2ccccc2)c(=O)c1/C=N/NC(=O)C(C)C | – | inactive: 20.9% |
| CCCCOc1ccc(CNn2c(C)nc3ccccc3c2=O)cc1 | inconclusive [activator, single point] | – |
| CCOc1ccc(-c2c(C(=O)N/N=C/c3cccnc3)nnn2-c2nonc2N)cc1 | – | inactive: -3.45% |
| O=[N+]([O-])c1cc(S(=O)(=O)Nc2ccc(Cl)cc2)ccc1N/N=C/c1ccncc1 | active: 4.11 µM | – |
| CN=C1S/C(=C\c2ccc(Cl)cc2)C(=O)N1C | inconclusive [activator, single point] | – |
| Cc1cc(C)c2c(CN3CCN(Cc4ccc5c(c4)OCO5)CC3)cc(=O)oc2c1C | inconclusive [activator, partial curve, poor fit] | – |
| O=C(Cc1ccccc1)Nc1ccc(C(=O)Nc2ccc(O)cc2)cc1 | inconclusive [activator, single point] | – |
| C=C1CCC2[C@](C)(CO[C@@H]3O[C@H](CO)[C@@H](O)[C@H](O)[C@H]3O)CCC[C@@]2(C)[C@@H]1CCC1=CCOC1=O (stereo partly specified) | – | inactive: 2.51% |
| COc1cc(C(=O)OC(C)CN2CCCCC2)cc(OC)c1OC (stereo unspecified) | – | inactive: -14.1% |
| COC(=O)c1sccc1Oc1ccc(F)cc1[N+](=O)[O-] | inconclusive [activator, single point] | – |
| COc1cc(CN(C)Cc2cc(=O)n3ccsc3n2)ccc1OC(F)F | – | inactive: -3.87% |
| CC(C)(C)C(=O)COC(=O)C1=NN(c2ccccc2)C(=O)CC1 | – | inactive: -7.16% |
| CN(C)C/C=C(\c1ccc(Br)cc1)c1cccnc1 | inconclusive [activator, full curve, poor fit] | – |
| CCOc1ccccc1NC(=O)CC1Nc2ccccc2NC1=O (stereo unspecified) | inconclusive [activator, partial curve, poor fit] | – |
| CCCC(=O)NNC(=O)c1c(O)c2ccccc2[nH]c1=O | inconclusive [activator, single point] | – |
| COc1ccc(OC)c(NC(=O)CSc2nnc(C3CCCCC3)n2-c2ccccc2)c1 | inconclusive [activator, partial curve] | – |
| CN(Cc1ccccc1)CC(O)COc1ccc(CNCc2cc3ccccc3s2)cc1 (stereo unspecified) | inconclusive [activator, single point] | – |
| C=C(C)CN(CC)c1nc(N)c2c(N)nc3c(c2c1C#N)CC(=O)N3C12CC3CC(CC(C3)C1)C2 | – | inactive: 23.9% |
| COc1ccc(/C=C2\SC(=S)N(CCCC(=O)N3CCN(C)CC3)C2=O)cc1 | inconclusive [activator, single point] | – |
| Cc1ccc(NC(=O)COC(=O)c2ccc(-n3cccn3)cc2)cc1C | – | inactive: 7.28% |
| Cc1cccc(N2C(S)=C(C#N)C(=O)NC2c2cccs2)c1 (stereo unspecified) | inconclusive [activator, single point] | – |

| SMILES | Potency | activity, positive = re-replication |
| --- | --- | --- |
| CCc1ccc(NC(=O)CSc2nc3ncc(Br)cc3[nH]2)cc1 | active: 11.6 µM | – |
| COc1ccc(S(=O)(=O)N2CCCCCC2)cc1Br | inconclusive [activator, partial curve, poor fit] | – |
| CCOC(=O)C1=C(C)NC(=S)NC1c1ccc(-c2ccc(Cl)cc2)o1 (stereo unspecified) | inconclusive [activator, single point] | – |
| CC1=NN(c2cccc(C(=O)O)c2)C(=O)/C1=C\C=C\c1ccco1 | inconclusive [activator, single point] | – |
| CCOC(=O)c1c(NC(=O)Cc2cccs2)sc(C)c1C | active: 3.66 µM | – |
| CC(=O)Nc1cccc(Oc2ncccc2[N+](=O)[O-])c1 | – | inactive: 8.87% |
| Cc1ccc(C)n1-c1nnc(N2CCC(C(=O)NCCCN3CCN(C)CC3)CC2)s1 | – | inactive: 4.51% |
| CCN(CC)CCNC(=O)c1ccc(NC(=O)c2cccc(S(=O)(=O)N3CCc4ccccc43)c2)cc1 | inconclusive [activator, single point] | – |
| CCOC(=O)/C=C1/SCC(=O)N1CC(=O)c1ccc[nH]1 | – | inactive: -13.9% |
| O=C1/C(=C/c2ccc(O)c(O)c2)SC(=S)N1Nc1ccccc1 | inconclusive [activator, partial curve] | – |
| CCCCOc1ccc(C(=O)N/C(=C\c2cccc([N+](=O)[O-])c2)C(=O)OCCC)cc1 | inconclusive [activator, partial curve, poor fit] | – |
| FC(F)(F)c1cc(CCN2C(=S)NC[C@@H]2Cc2ccccc2)cc(C(F)(F)F)c1 | inconclusive [activator, single point] | – |
| Cc1ccc(C(=O)OCC(=O)N(C)c2ccccc2)c(C)c1 | – | inactive: -2.43% |
| COc1cc(NC(=O)c2ccc3c(c2)OCCO3)ccc1NC(=O)c1cccs1 | – | inactive: 13.9% |
| Cc1ccc(C(=O)Nc2ccncc2)c(Cl)c1 | inconclusive [activator, single point] | – |
| O=C(NCCN1CCOCC1)c1ccc(/C=C2\Sc3ccccc3N(Cc3ccc(F)cc3)C2=O)cc1 | active: 18.4 µM | – |
| COc1cc(N=Nc2ccccc2C(=O)O)ccc1O | active: 18.4 µM | – |
| CCC1OC23CCCCC2C(C#N)(C(=N)O3)C1(C#N)C#N (stereo unspecified) | inconclusive [activator, single point] | – |
| Cc1cccc(NC(=O)C2C(c3ccccc3)C2(Cl)Cl)c1C (stereo unspecified) | inconclusive [activator, single point] | – |
| COC(=O)c1cn(NC(=O)c2ccc(OC)c(OC)c2)c(=O)c2ccccc12 | – | inactive: -9.02% |
| Nc1nc(SCc2ccc(Cl)cc2Cl)nc2nc3c(cc12)CCCC3 | inconclusive [activator, partial curve] | – |
| NC(N)=N/N=C/c1ccc(Cl)c(Cl)c1 | inconclusive [activator, single point] | – |
| COc1cccc(C(=O)CSc2nnnn2C)c1 | – | inactive: -5.26% |
| Nc1c(C(=O)c2ccc(Br)cc2)oc2ccccc12 | inconclusive [activator, single point] | – |

| SMILES | Potency | activity, positive = re-replication |
| --- | --- | --- |
| CCCN(CCC)CCNC(=O)c1cc2c(-c3ccccc3F)nn(C)c2s1 | – | inactive: 94.4% |
| CCC(C)NC(=O)CC(NS(=O)(=O)c1ccc(C)cc1)c1ccc(OC)cc1 (stereo unspecified) | – | inactive: -80.8% |
| O=C(Nc1cc(C(F)(F)F)ccc1N1CCOCC1)c1ccc2ccccc2n1 | inconclusive [activator, partial curve, poor fit] | – |
| Cc1cc(C(=O)N/N=C2/CC(C)CC(C)(C)C2)c(C)o1 (stereo unspecified) | – | inactive: -7.57% |
| NC(=O)c1c(N)sc(=S)n1CC1CCCO1 (stereo unspecified) | – | inactive: 0.796% |
| COc1ccccc1N1CCN(C(=O)c2oc3cc(C)cc(C)c3c2C)CC1 | inconclusive [activator, single point] | – |
| CC1(C)CCc2cc(CN3CCN(c4ccccn4)CC3)ccc2O1 | inconclusive [activator, single point] | – |
| CC(=O)Nc1cc(C(=O)OC(C(=O)c2ccccc2)c2ccccc2)ccc1C (stereo unspecified) | – | inactive: 31.5% |
| COc1cc(CNCCO)cc(Br)c1OCc1ccccc1Cl | inconclusive [activator, partial curve, poor fit] | – |
| COc1ccccc1N1CCN(C(=S)Nc2ccc3nc(N4CCOCC4)cc(C)c3c2)CC1 | inconclusive [activator, single point] | – |
| CN(CC(=O)Nc1cccc(F)c1)C(=O)CCc1nc2sc3c(c2c(=O)[nH]1)CCCC3 | inconclusive [activator, single point] | – |
| O=C(c1ccc(OC2CCN(Cc3ccc(C(F)(F)F)cc3)CC2)cc1)N1CCCCC1 | inconclusive [activator, single point] | – |
| Cc1ccccc1C(=O)N1CCc2ccccc2C1 | active: 16.4 µM | – |
| COc1ccc(S(=O)(=O)Nc2ncccn2)cc1 | – | inactive: -3.11% |
| Cc1ccnc(NC(=O)c2cccc(S(=O)(=O)Nc3ccc(C)cc3C)c2)c1 | inconclusive [activator, partial curve, poor fit] | – |
| S=c1[nH]nc(-c2cc3ccccc3o2)n1Cc1ccccc1 | – | inactive: 16% |
| CC1(C)c2[nH]c3ccccc3c2C[C@H]2C(=O)N(Cc3cccc(F)c3)C(=O)N21 | inconclusive [activator, single point] | – |
| C=CCN(c1ccccc1OC)S(=O)(=O)c1cccc(C(=O)Nc2nnc(C3CC3)s2)c1 | inconclusive [activator, single point] | – |
| CC(=O)N1CCc2cc(S(=O)(=O)C(C)CC(=O)Nc3ccc(OC(F)(F)F)cc3)ccc21 (stereo unspecified) | – | inactive: 10.2% |
| CC(C)(C)C(=O)CSc1ncnc2c1cnn2Cc1ccccc1 | inconclusive [activator, partial curve] | – |
| CCOC(=O)[C@H]1[C@H]2COc3ccc(Br)cc3[C@@H]2N2C(=O)c3cc(OC)c(OC)cc3NC(=O)[C@@]12C | – | inactive: -17.4% |
| COc1ccc(Cl)cc1NC(=O)CN(C)CC(=O)Nc1ccc(C)cc1Br | inconclusive [activator, partial curve, poor fit] | – |
| CCOc1cc(C(=O)O/N=C(\N)c2ccccn2)cc(OCC)c1OCC | inconclusive [activator, single point] | – |
